These results are taken from the RNAGym collection of RNA variant scans (doi:10.7554/elife.90254).

The source gives no read counts; variants with many changes may rest on few reads.

B1: LINE1-mini (parent)
chain: GGCAGAGCUCAACACAGCGUGGCAAAGUGGCUGUGGCUAGACUGCC

Variants of B1 are the subject of the series. As to the kind of experiment: self-cleavage, relative activity (ratio to wild type); higher = more cleavage; in vitro, sequencing; the parent is a self-cleaving ribozyme.
Take C10A C15U G33U C42U: the self-cleavage turned out to be 0.03.

Turning to C10A A12U G36U, the self-cleavage is 0.03.

C10A C18U G27C: the self-cleavage turned out to be 0.53.

Take C10A A16U A26U G27U G36A U38G: the self-cleavage amounted to 0.02.

For C10A A25C G27C A41U, the self-cleavage amounted to 0.01.

Consider C10A A14C A25U A26G A41C, for which the self-cleavage stood at 0.02.

Take C10A G17C A25C G33U C42G: the self-cleavage was found to be 0.

Take C10A A25G G44C: the self-cleavage came out at 0.02.

Consider C10A C15U C18U, for which the self-cleavage worked out at 0.62.

Take C10A A16C C18G: the self-cleavage was 0.01.

For the variant C10A G17A U43C G44C, the self-cleavage was determined as 0.01.

In the case of C10A A24C C37U, the self-cleavage amounted to 0.01.

For the variant C10A C13U G36U, the self-cleavage turned out to be 0.03.

C10A A14C C31G G36C A41G C45G C46A: the self-cleavage turned out to be 0.01.

In the case of C10A G22U C45U, the self-cleavage is 0.07.

Consider C10A A25U G29U U34G, for which the self-cleavage came to 0.02.

As to C10A C13G A16C G17C C18U G36U C46G, the self-cleavage turned out to be 0.01.

For C10A A12G A25U G33C G36U, the self-cleavage came to 0.06.

Take C10A G17A A24G G29A C45G: the self-cleavage was determined as 0.04.

Consider C10A C15U A25C G35A, for which the self-cleavage amounted to 0.01.

With C10A A14G G17A G22U C45A, the self-cleavage came to 0.03.

As to C10A C13G A41G G44C, the self-cleavage was determined as 0.

Take C10A G17C U20A: the self-cleavage was 0.03.

C10A C18A G29C: the self-cleavage came to 0.06.

Take C10A A12C U28C: the self-cleavage is 0.02.

In the case of C10A A12C G17A, the self-cleavage was 0.01.

In the case of C10A G19U C23U A25C G36U, the self-cleavage was found to be 0.03.

In the case of C10A A12C G27U G44A C45U, the self-cleavage was 0.01.

Turning to C10A G22U A26C A39U U43A, the self-cleavage was determined as 0.

Consider C10A A16U U38G G44A, for which the self-cleavage was 0.03.

Consider C10A G17U A39U A41U, for which the self-cleavage came to 0.08.

In the case of C10A C23G C42A U43A, the self-cleavage came to 0.01.

Turning to C10A G22C G27A, the self-cleavage turned out to be 0.01.

On to C10A G22C G27U, for which the self-cleavage was found to be 0.02.

For C10A A39C C42A, the self-cleavage turned out to be 0.06.

Regarding C10A A12G C42A, the self-cleavage was found to be 0.01.

On to C10A C15A A26G, for which the self-cleavage turned out to be 0.

Regarding C10A C15A A26U, the self-cleavage is 0.

As for C10A G17U G33C, the self-cleavage is 0.04.

C10A G21U G40C: the self-cleavage was determined as 0.01.

As for C10A G19C G21U G35A U38A, the self-cleavage worked out at 0.01.

As for C10A A26C G30U C45U, the self-cleavage came out at 0.04.

On to C10A C15U U20A G21A G40C, for which the self-cleavage turned out to be 0.01.

In the case of C10A C18G U32C G33U, the self-cleavage is 0.01.

As for C10A G21C U32G G35U, the self-cleavage stood at 0.

With C10A C13U A41G, the self-cleavage was determined as 0.01.

For C10A G17A A39U, the self-cleavage stood at 0.08.

Take C10A A14G A16G G44U: the self-cleavage turned out to be 0.03.

C10A A12U G27A: the self-cleavage stood at 0.02.

For the variant C10A G21U G40U G44A, the self-cleavage turned out to be 0.06.

Turning to C10A A39G G44A, the self-cleavage was found to be 0.05.

C10A C18G G22C U34A: the self-cleavage stood at 0.01.

Take C10A A14G G17U A24G: the self-cleavage was 0.01.

As to C10A G19U A24G, the self-cleavage was determined as 0.08.

On to C10A C13U C23A G35C, for which the self-cleavage stood at 0.01.

With C10A A24C C42A, the self-cleavage turned out to be 0.03.

Regarding C10A C15U A24G C37U, the self-cleavage is 0.01.

In the case of C10A G17U G19A G27A U28G U32A A39U, the self-cleavage came out at 0.02.

On to C10A A25C A26G C46G, for which the self-cleavage turned out to be 0.

Consider C10A C15A C23U, for which the self-cleavage is 0.08.

Take C10A A12C G29U U38A: the self-cleavage was found to be 0.

Take C10A C13A G33C G36C: the self-cleavage turned out to be 0.01.

With C10A A41U G44U, the self-cleavage is 0.

With C10A C18A C46A, the self-cleavage stood at 0.02.

On to C10A A14U C18U G35C G44U, for which the self-cleavage amounted to 0.03.

C10A A24C G40U: the self-cleavage worked out at 0.

As for C10A C18U C45G, the self-cleavage was 0.26.

For C10A A14G G27U G30C, the self-cleavage came out at 0.01.

Turning to C10A A16U C23A, the self-cleavage was found to be 0.02.

Turning to C10A G21C A24U, the self-cleavage was determined as 0.01.

C10A A12G C45A: the self-cleavage was determined as 0.03.

Consider C10A C15A G21U, for which the self-cleavage turned out to be 0.04.

In the case of C10A C13A C31A, the self-cleavage came to 0.04.

In the case of C10A C23G U38G C42U, the self-cleavage amounted to 0.03.

In the case of C10A A39C C45G, the self-cleavage turned out to be 0.02.

For the variant C10A C15U U34C, the self-cleavage was determined as 0.08.

Consider C10A C23U C46A, for which the self-cleavage amounted to 0.04.

For C10A A12C A16G G17U, the self-cleavage is 0.01.

Turning to C10A A14U G17C G21C, the self-cleavage is 0.02.

For the variant C10A A25C U38G, the self-cleavage worked out at 0.01.

Consider C10A A12U C13U G30A, for which the self-cleavage amounted to 0.04.

In the case of C10A C15U G33U G44U C46U, the self-cleavage was 0.02.

For C10A G17C G35C, the self-cleavage turned out to be 0.05.

As to C10A C13U U34G, the self-cleavage was 0.02.

For C10A A12G U28G, the self-cleavage turned out to be 0.03.

C10A G19U A26C G33U C42A: the self-cleavage is 0.01.

Take C10A G21A G29U: the self-cleavage is 0.08.

Consider C10A A24C U28G U34A C46G, for which the self-cleavage was 0.

Consider C10A A14G U28G G36A, for which the self-cleavage was determined as 0.03.

Regarding C10A A26U C31A G44A C46G, the self-cleavage was found to be 0.

On to C10A G17C G44U, for which the self-cleavage was found to be 0.03.

As for C10A C13A C15A, the self-cleavage was found to be 0.02.

With C10A A12C U20C G22U A25U G33A G40C, the self-cleavage is 0.

Regarding C10A A14C G29C C37G, the self-cleavage was 0.01.

C10A A26C C37U A39U C45A: the self-cleavage worked out at 0.01.

Take C10A G17A G36C C45U: the self-cleavage was determined as 0.

Consider C10A C13G A25G, for which the self-cleavage was determined as 0.02.

Turning to C10A G22C U28C C31G U34C G36C G40A, the self-cleavage stood at 0.

Regarding C10A A39U G40U, the self-cleavage amounted to 0.

For C10A A41G C42A C46A, the self-cleavage is 0.01.

As for C10A A14G C18A A25U U28A C37A, the self-cleavage is 0.01.

Consider C10A A14G C31U A39G C42U, for which the self-cleavage was found to be 0.02.

Turning to C10A A26G G30C C31A A41G U43A, the self-cleavage amounted to 0.01.

On to C10A C13U U20C, for which the self-cleavage was 0.02.

As to C10A A14C C15G A16G, the self-cleavage was 0.01.

With C10A A14U C23U C42U, the self-cleavage stood at 0.26.

With C10A A12U C31U G44C, the self-cleavage was found to be 0.

C10A G19U U43C: the self-cleavage was 0.

As to C10A G22C C23G, the self-cleavage worked out at 0.04.

As to C10A G19U A25C, the self-cleavage was found to be 0.01.

Take C10A C15G C23U: the self-cleavage turned out to be 0.03.

As to C10A G21U G27U, the self-cleavage was determined as 0.

C10A A14G G21C G33C: the self-cleavage is 0.

Regarding C10A C18U G40A, the self-cleavage was found to be 0.01.

In the case of C10A C15A C42U U43A, the self-cleavage was 0.04.

C10A A16U C18A A41G: the self-cleavage was determined as 0.04.

On to C10A C13U G30U C37A, for which the self-cleavage worked out at 0.01.

With C10A G19C G29U G33U, the self-cleavage was determined as 0.03.

As for C10A C18G A25U, the self-cleavage came out at 0.25.

In the case of C10A G17C U34A G35C C45A, the self-cleavage came to 0.01.

As for C10A G19A U32A G35A G44U C46G, the self-cleavage was 0.01.

As to C10A A26C A41G, the self-cleavage is 0.

Consider C10A A12U A14G, for which the self-cleavage was determined as 0.05.

As to C10A A14C A26G, the self-cleavage was 0.

As to C10A G21U U43G G44U, the self-cleavage came out at 0.02.

Regarding C10A G21C G27U U28G, the self-cleavage is 0.04.

C10A C15G A24U U32A: the self-cleavage was found to be 0.01.

With C10A C18A C37U, the self-cleavage stood at 0.02.

As to C10A C18A U32G, the self-cleavage was 0.02.

Take C10A A16U G21U: the self-cleavage came out at 0.05.

Regarding C10A G19U G36C, the self-cleavage was determined as 0.03.

In the case of C10A A14G G22U G27C C31U G33C U38G, the self-cleavage turned out to be 0.

Regarding C10A C31A G40A C46G, the self-cleavage stood at 0.02.

Take C10A A14G C37U: the self-cleavage is 0.01.

C10A C13A G33A: the self-cleavage was determined as 0.03.

As to C10A C31A U32C, the self-cleavage stood at 0.02.

In the case of C10A C15A C23G C45U, the self-cleavage worked out at 0.03.

As to C10A G21C G22A, the self-cleavage came to 0.

On to C10A A12G G40A G44C, for which the self-cleavage was determined as 0.

C10A G19A C23U C37A U38A: the self-cleavage worked out at 0.01.

C10A G17U G36U: the self-cleavage was determined as 0.02.

For the variant C10A C13U G40A, the self-cleavage amounted to 0.14.

On to C10A A12C U38A, for which the self-cleavage is 0.03.

On to C10A A12C A24C A26C G30U U43A, for which the self-cleavage stood at 0.

With C10A G21C A24G A25G U34A, the self-cleavage is 0.03.

For the variant C10A C15U C42U, the self-cleavage worked out at 0.03.

Take C10A A39U G44C: the self-cleavage worked out at 0.01.

Regarding C10A A25G G35A G40C, the self-cleavage came out at 0.01.

C10A A14C A25C A26C G35U U38G C42U: the self-cleavage worked out at 0.02.

For the variant C10A C18U G27U U32C A39C, the self-cleavage was 0.03.

Take C10A A12U C13U: the self-cleavage came out at 0.02.

On to C10A C15U A39C C42A U43G, for which the self-cleavage was found to be 0.01.

As to C10A C15U C18A G22U, the self-cleavage came out at 0.08.

With C10A G22U G29C U43A, the self-cleavage was found to be 0.

On to C10A A25G A26C, for which the self-cleavage is 0.02.

With C10A C37U A41C, the self-cleavage worked out at 0.01.

For the variant C10A C15A G33A, the self-cleavage is 0.04.

On to C10A A11U U34G, for which the self-cleavage came out at 0.09.

As to C10A A12C C13G G21U C23U C31G, the self-cleavage came out at 0.02.

On to C10A G21U A24G A39U, for which the self-cleavage came out at 0.17.

As for C10A A16C A39C, the self-cleavage was 0.01.

As for C10A G17C C18G G29C A39C, the self-cleavage came out at 0.

For C10A G19C C31G, the self-cleavage is 0.05.

For the variant C10A A16G A24C C46A, the self-cleavage came to 0.02.

For the variant C10A G22A U34C, the self-cleavage stood at 0.07.

C10A C13U A26G G36U: the self-cleavage stood at 0.02.

With C10A C15G A16C, the self-cleavage is 0.02.
